The least precise scores are not listed. Two further conditions of the source, in which the scores hardly spread, are not listed. Read del as a deletion of the residues named and ins as an insertion between two positions. For part of these data: How much ogerin was present is not stated here.
B1: GPR68, Q15743 (parent)
chain: MGNITADNSSMSCTIDHTIHQTLAPVVYVTVLVVGFPANCLSLYFGYLQIKARNELGVYLCNLTVADLFYICSLPFWLQYVLQHDNWSHGDLSCQVCGILLYENIYISVGFLCCISVDRYLAVAHPFRFHQFRTLKAAVGVSVVIWAKELLTSIYFLMHEEVIEDENQHRVCFEHYPIQAWQRAINYYRFLVGFLFPICLLLASYQGILRAVRRSHGTQKSRKDQIQRLVLSTVVIFLACFLPYHVLLLVRSVWEASCDFAKGVFNAYHFSLLLTSFNCVADPVLYCFVSETTHRDLARLRGACLAFLTCSRTGRAREAYPLGAPEASGKSGAQGEEPELLTKLHPAFQTPNSPGSGGFPTGRLA

Assays:
[1] = variants of: B1; test: cAMP reporter score (Enrich2 score, wild type = 0); higher = more signal; HEK293T, FACS bins
[2] = variants of: B1; test: surface expression score (Enrich2 score, wild type = 0); higher = more signal; HEK293T, FACS bins

Variant | cAMP reporter score ([1]; pH 5.5) | cAMP reporter score ([1]; pH 6.5, modulator: ogerin) | surface expression score [2] | cAMP reporter score ([1]; pH 6) | cAMP reporter score ([1]; pH 6, modulator: ogerin)
L63N | -0.169 | -0.538 | -1.89 |  | 
L63P | -1.02 | -0.95 | -3.41 | -0.536 | -2.54
L63Q | -1.85 | -2 | -1.95 | -1.51 | -1.16
L63R | -0.521 | -0.61 | -1.65 | -0.299 | -1.24
L63S | -1.46 | -1.52 | -2.49 | -0.528 | -2.34
L63T | -1.19 | -1.53 | -2.07 | -0.991 | -1.18
L63V | -0.593 | -0.601 | -2.12 | -0.584 | -0.51
L63W | -1.31 | -1.49 | -2.03 | -1.56 | -2.05
L63Y | -2.06 | -0.797 | -2.99 | -1.32 | -1.51
L63_T64insGS | -1.32 | -0.809 | -1.98 | -1.22 | -1.64
L63_T64insGSG | -1.51 | -1.19 | -2.71 | -1.62 | -1.21
L63del | -1.78 | -0.721 | -1.95 | -0.802 | -0.909
T64_V65del | -1.44 | -1.28 | -2.55 | -1.84 | -1.68
T64_V65insGS | -1.19 | -0.971 | -2.93 | -1.03 | -2.42
V65A | -0.171 | 0.331 | -0.3 | 0.087 | -0.252
V65C | -0.008 | -0.458 | -1.21 | -1.68 | -0.173
V65D | -0.54 | -0.37 | -1.46 | 0.01 | -2.05
V65E | -1.54 | -0.825 | -2.67 | -1.78 | -2.08
V65F | -0.369 | -0.505 | -1.34 | -0.518 | -0.362
V65G | -0.415 | -0.891 |  |  | -0.513
V65H | -1.11 | -1.87 | -2.19 |  | -1.54

Variant | cAMP reporter score ([1]; pH 5.5) | cAMP reporter score ([1]; pH 6.5, modulator: ogerin) | surface expression score [2] | cAMP reporter score ([1]; pH 6) | cAMP reporter score ([1]; pH 6, modulator: ogerin)
V65I | -1.33 | -0.169 | -0.462 | 0.284 | -1.37
V65K | -3.28 | -0.54 |  | -0.484 | 
V65L | 0.322 | 1.18 | 1.21 | -0.711 | 1.13
V65M | 0.03 | 0.535 | 0.103 | -0.073 | -0.076
V65P | -0.752 | -0.846 | -2.65 | -1.54 | -0.679
V65Q | -1.01 | -0.978 | -1.91 | -0.57 | -1.27
V65R | -0.413 |  | -1.47 |  | 0.022
V65S | -1.43 | -1.37 | -0.999 | -1.27 | -1.78
V65T | -0.677 | -1.09 | -1.64 | -1.1 | -0.52
V65W | -1.31 | -0.881 | -2.53 | -1.29 | 
V65Y | 0.435 | 0.192 | -2.61 | 0.567 | 
V65_A66del | -1.2 | -0.826 | -1.98 | -0.677 | -1.51
V65_A66insG | -0.767 | -0.858 |  | 0.991 | -0.657
V65_A66insGS | -0.941 | -1.56 | -2.13 |  | -1.7
A66_D67del | -1.67 | -0.97 | -2.34 | -1.05 | -1.63
A66_D67insG | -0.51 | -0.303 | -0.289 | -1.14 | -0.675
A66_D67insGS | -1.2 | -1.74 | -1.99 | -1.1 | -1.07
A66_D67insGSG | -1.57 | -1.45 | -2.29 | -2.2 | -1.26
A66del | -1.75 | -1.09 | -2.86 | -1.32 | -1.9
D67C | -0.907 | -0.737 | 1.33 | -0.476 | 0.368
D67E | -0.42 | -0.25 | -1.23 | 0.051 | -0.172

Variant | cAMP reporter score ([1]; pH 5.5) | cAMP reporter score ([1]; pH 6.5, modulator: ogerin) | surface expression score [2] | cAMP reporter score ([1]; pH 6) | cAMP reporter score ([1]; pH 6, modulator: ogerin)
D67F | -0.585 | -0.596 | -1.75 | -0.855 | -0.78
D67G | -1.15 | -0.268 | 1.27 | -0.017 | -1.13
D67H | -0.185 | -0.185 | -1.28 | 0.701 | -0.722
D67I | -1.16 | -1.09 | -1.66 | -0.016 | -1.04
D67K | -0.482 | -0.392 | -0.395 | -0.119 | -0.665
D67L | -0.709 | -0.337 | -1.19 | -0.09 | -0.856
D67M | -2.25 | -0.528 | -1.2 | -0.738 | -1.42
D67N | -0.686 | -1.09 | 1.66 | -0.062 | -0.842
D67P | -1.48 | -1.18 | -1.87 | -1.15 | -1.71
D67Q | 0.07 | -0.949 | 3.85 | 0.828 | -0.348
D67R | -0.767 | -0.814 | 0.685 | -0.389 | 0.269
D67S | -0.861 | 0.427 | 0.512 | -0.437 | -0.87
D67T | -1.14 | -0.791 | 0.134 | -0.069 | -1.05
D67V | -1.28 | -0.986 | -1.2 | -0.612 | -1.25
D67W | -0.535 | -1.08 | -1.66 |  | -0.34
D67Y | -1.69 | -1.35 | -1.59 | -0.275 | -1.61
D67_L68del | -1.41 | -1.19 | -2.59 | -0.074 | -1.87
D67_L68insGSG | -1.82 | -1.65 | -2.04 | -1.76 | -1.68
L68A | -1.17 | -0.242 |  | -0.478 | 0.168
L68C | -0.723 | -0.703 | -1.75 | -0.406 | -0.618
L68D | -2.46 |  |  | -0.815 | 

— the GPR68 mutational scans of Howard et al. (2025)
